Data from patent EP4613780A1 (Adlai Nortye Biopharma Co., Ltd., dated 2025).

T1: human CTLA4 protein (Acro, CT4-H52H9) (human, UniProt P16410 36-161)
T1 construct: coated on the ELISA plate; also called human CTLA4 antigen
T1 sequence (looked up): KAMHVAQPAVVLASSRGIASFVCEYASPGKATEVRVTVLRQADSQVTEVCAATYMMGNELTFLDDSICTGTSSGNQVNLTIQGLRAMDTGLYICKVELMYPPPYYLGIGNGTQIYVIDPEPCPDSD

B1: functional antibody Abs-357 (Fc fusion)
chain: APLKIQAYFNETADLPCQFANSQNFSLSELVVFWQDQENLVLNEVYLGKEKFDSVHSKYMGRTSFDSDSWTLRLHNLQIKDKGLYQCIIVHKKPTGMIRIHQMNSELSVL[left out - human IgG4 Fc]
notes: CD86 IgV Q25F/H90V - IgG4 Fc
B2: functional antibody Abs-958 (other)
heavy: EVQLVESGGGLVQPGGSLRLSCAASGFTFNTYAMNWVRQAPGKGLEWVARIRSKYNNYATYYAASVKGRFTISRDDSKNSLYLQMNSLKTEDTAVYYCARHGNFGNSYVSWFAYWGQGTLVTVSS[left out - human IgG1 constant region]GGGGSGGGGSGGGGSGGGGSGAPLKIQAYFNETADLPCQFANSQNQSLSELVVFWQDQENLVLNEVYLGKEKFDSVHSKYMGRTSFDSDSWTLRLHNLQIKDKGLYQCIIHHKKPTGMIRIHQMNSELSVL
light: QTVVTQEPSLTVSPGGTVTLTCRSSTGAVTTSNYANWVQQKPGQAPRGLIGGTNKRAPGTPARFSGSLLGGKAALTLSGVQPEDEAEYYCALWYSNLWVFGGGTKLTVLGQPKAAPSVTLFPPSSEELQANKATLVCLISDFYPGAVTVAWKADSSPVKAGVETTTPSKQSNNKYAASSYLSLTPEQWKSHRSYSCQVTHEGSTVEKTVAPTECS
notes: CD3B219 heavy chain - unmutated CD86 IgV; CD3B219 light chain
B3: functional antibody Abs-959 (other)
heavy: EVQLVESGGGLVQPGGSLRLSCAASGFTFNTYAMNWVRQAPGKGLEWVARIRSKYNNYATYYAASVKGRFTISRDDSKNSLYLQMNSLKTEDTAVYYCARHGNFGNSYVSWFAYWGQGTLVTVSS[left out - human IgG1 constant region]GGGGSGGGGSGGGGSGGGGSGAPLKIQAYFNETADLPCQFANSQNISLSELVVLWQDQENLVLNEVYLGKEKFDSVHSKYMGRTSFDSDSWTLRLHNLQIKDKGLYQCIIIHKKPTGMIRIHQMNSELSVL
light: B2 light
notes: CD3B219 heavy chain - CD86 IgV Q25I/F33L/H90I; CD3B219 light chain

These binders were tested against T1, human CTLA4 protein (Acro, CT4-H52H9) (assay: ELISA, coated human CTLA4).

Which EC50 does the source give for B1 here?
The EC50 was 0.779 nM.

How did the EC50 turn out when B2 was run?
Its EC50 is 2.89 nM.

For B3, which EC50 is on record?
The EC50 was 0.783 nM.

Each binder was assayed against T2, human CD28 protein (Acro, CD8-H525a) (human, UniProt P10747 19-152) (assay: ELISA, coated human CD28).
T2 construct: coated on the ELISA plate; also called human CD28 antigen
T2 sequence (P10747 19-152 limits assumed): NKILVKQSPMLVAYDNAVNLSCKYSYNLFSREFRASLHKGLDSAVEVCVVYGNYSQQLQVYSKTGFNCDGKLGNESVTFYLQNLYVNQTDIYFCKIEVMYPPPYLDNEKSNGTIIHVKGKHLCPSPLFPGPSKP

How did the EC50 turn out when B1 was run?
Its EC50 is 0.0814 nM.

For B2, which EC50 is on record?
The EC50 was 30.7 nM.

Which EC50 does the source give for B3 here?
The EC50 was 1.88 nM.
